The supplement of paper PMC8728848
This is one part of the list.

Columns and labels:
Test in all cases: glycan array binding signal (z-score within array); higher = stronger binding
Details in all cases: glycan notation: IUPAC condensed, linker removed
[1] = target: Neu5Ac(a2-6)GlcNAc(b1-4)GlcNAc
Method in brief: (§1)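 The binding signal is a Z-score computed within each array and averaged over linkers. Arrays of the same protein sequence at different concentrations or buffers were also averaged together. Data originate from 3228 arrays in the Consortium for Functional Glycomics database, kept only where the protein sequence was available.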

[2] = target: Neu5Ac(a2-6)GlcNAc(b1-4)GlcNAc(b1-4)GlcNAc
Method in brief: as §1

Neu5Ac(a2-8)Neu5Ac = target: Neu5Ac(a2-8)Neu5Ac
Method in brief: as §1

[3] = target: Neu5Ac(a2-8)Neu5Ac(a2-3)Gal(b1-3)GalNAc(b1-4)[Neu5Ac(a2-3)]Gal(b1-4)Glc
Method in brief: as §1

[4] = target: Neu5Ac(a2-8)Neu5Ac(a2-3)Gal(b1-3)GalNAc(b1-4)[Neu5Ac(a2-8)Neu5Ac(a2-3)]Gal(b1-4)Glc
Method in brief: as §1

[5] = target: Neu5Ac(a2-8)Neu5Ac(a2-3)Gal(b1-4)Glc
Method in brief: as §1

[6] = target: Neu5Ac(a2-8)Neu5Ac(a2-3)Gal(b1-4)GlcNAc
Method in brief: as §1

[7] = target: Neu5Ac(a2-8)Neu5Ac(a2-3)[Gal(b1-3)GalNAc(b1-4)]Gal(b1-4)Glc
Method in brief: as §1

[8] = target: Neu5Ac(a2-8)Neu5Ac(a2-3)[GalNAc(b1-4)]Gal(b1-4)Glc
Method in brief: as §1

[9] = target: Neu5Ac(a2-8)Neu5Ac(a2-8)Neu5Ac
Method in brief: as §1

[10] = target: Neu5Ac(a2-8)Neu5Ac(a2-8)Neu5Ac(a2-3)Gal(b1-4)Glc
Method in brief: as §1

[11] = target: Neu5Ac(a2-8)Neu5Ac(a2-8)Neu5Ac(a2-3)[Gal(b1-3)GalNAc(b1-4)]Gal(b1-4)Glc
Method in brief: as §1

[12] = target: Neu5Ac(a2-8)Neu5Ac(a2-8)Neu5Ac(a2-3)[GalNAc(b1-4)]Gal(b1-4)Glc
Method in brief: as §1

[13] = target: Neu5Ac(a2-8)Neu5Ac(a2-8)Neu5Ac(a2-8)Neu5Ac(a2-3)[GalNAc(b1-4)]Gal(b1-4)Glc
Method in brief: as §1

[14] = target: Neu5Ac(a2-8)Neu5Gc(a2-3)Gal(b1-4)GlcNAc
Method in brief: as §1

[15] = target: Neu5Ac(b2-6)Gal(b1-4)GlcNAc
Method in brief: as §1

Neu5Ac(b2-6)GalNAc = target: Neu5Ac(b2-6)GalNAc
Method in brief: as §1

[16] = target: Neu5Ac9Ac(a2-3)Gal(b1-3)GlcNAc
Method in brief: as §1

[17] = target: Neu5Ac9Ac(a2-3)Gal(b1-4)GlcNAc
Method in brief: as §1

[18] = target: Neu5Ac9Ac(a2-6)Gal(b1-4)GlcNAc
Method in brief: as §1

[19] = target: Neu5Gc(a2-3)Gal(b1-3)GlcNAc
Method in brief: as §1

[20] = target: Neu5Gc(a2-3)Gal(b1-3)[Fuc(a1-4)]GlcNAc
Method in brief: as §1

Neu5Gc(a2-3)Gal(b1-4)Glc = target: Neu5Gc(a2-3)Gal(b1-4)Glc
Method in brief: as §1

[21] = target: Neu5Gc(a2-3)Gal(b1-4)GlcNAc
Method in brief: as §1

[22] = target: Neu5Gc(a2-3)Gal(b1-4)GlcNAc(b1-3)Gal(b1-4)GlcNAc(b1-2)Man(a1-3)[Neu5Gc(a2-3)Gal(b1-4)GlcNAc(b1-3)Gal(b1-4)GlcNAc(b1-2)Man(a1-6)]Man(b1-4)GlcNAc(b1-4)GlcNAc
Method in brief: as §1

[23] = target: Neu5Gc(a2-3)Gal(b1-4)[Fuc(a1-3)]GlcNAc
Method in brief: as §1

[24] = target: Neu5Gc(a2-6)Gal(b1-4)GlcNAc
Method in brief: as §1

Neu5Gc(a2-6)GalNAc = target: Neu5Gc(a2-6)GalNAc
Method in brief: as §1

[25] = target: Neu5Gc(a2-8)Neu5Ac(a2-3)Gal(b1-4)GlcNAc
Method in brief: as §1

[26] = target: Neu5Gc(a2-8)Neu5Gc(a2-3)Gal(b1-4)GlcNAc
Method in brief: as §1

[27] = target: Neu5Gc(a2-8)Neu5Gc(a2-3)Gal(b1-4)GlcNAc(b1-3)Gal(b1-4)GlcNAc
Method in brief: as §1

[28] = target: Neu5Gc(a2-8)Neu5Gc(a2-6)Gal(b1-4)GlcNAc
Method in brief: as §1

[29] = target: Neu5Gc(b2-6)Gal(b1-4)GlcNAc
Method in brief: as §1

B1: DrGal3 (Danio rerio) (protein)
chain: MDLSDALDAPPQQNNQQAGGPVWPGQPANPVWPGQPANPTWPGQPNQPAWPGQPNQQWPGQPGQPTAPGWPGPAPQTGPYGAPGQAPQVLTVPLDFPLQNGAYNKMLITINGEVKPNAKQFTVNLRRGNDIAFHINPRFSEGGKPVIVRNSMIGNNWGREERELPSFPFVPGKPFEMKILITDTEYKVAVNKSHLLEFKHRVFELNQITGLSIYNDVTLSTVNVETLQ
Question: What does the source list for B1?
Answer: glycan array binding signal (z-score) [1]: -0.24; glycan array binding signal (z-score) [2]: -0.278; glycan array binding signal (z-score) (Neu5Ac(a2-8)Neu5Ac): -0.189; glycan array binding signal (z-score) [3]: -0.241; glycan array binding signal (z-score) [4]: -0.205; glycan array binding signal (z-score) [5]: -0.271; glycan array binding signal (z-score) [6]: -0.305; glycan array binding signal (z-score) [7]: -0.239; glycan array binding signal (z-score) [8]: -0.184; glycan array binding signal (z-score) [9]: -0.251; glycan array binding signal (z-score) [10]: -0.195; glycan array binding signal (z-score) [11]: -0.224; glycan array binding signal (z-score) [12]: -0.239; glycan array binding signal (z-score) [13]: -0.212; glycan array binding signal (z-score) [14]: -0.3; glycan array binding signal (z-score) [15]: -0.231; glycan array binding signal (z-score) (Neu5Ac(b2-6)GalNAc): -0.29; glycan array binding signal (z-score) [16]: -0.271; glycan array binding signal (z-score) [17]: -0.155; glycan array binding signal (z-score) [18]: -0.232; glycan array binding signal (z-score) [19]: -0.257; glycan array binding signal (z-score) [20]: -0.233; glycan array binding signal (z-score) (Neu5Gc(a2-3)Gal(b1-4)Glc): -0.285; glycan array binding signal (z-score) [21]: -0.247; glycan array binding signal (z-score) [22]: 1.99; glycan array binding signal (z-score) [23]: -0.086; glycan array binding signal (z-score) [24]: -0.29; glycan array binding signal (z-score) (Neu5Gc(a2-6)GalNAc): -0.254; glycan array binding signal (z-score) [25]: -0.212; glycan array binding signal (z-score) [26]: -0.283; glycan array binding signal (z-score) [27]: -0.206; glycan array binding signal (z-score) [28]: -0.285; glycan array binding signal (z-score) [29]: -0.254
